# Measurements taken from the supplement of paper PMC8728848.
# The list shows a part of the results.
# B1: LSL-150 (Laetiporus sulphureus), Q7Z8V1 (protein)
# chain: MTDIYIPPEGLYFRLLGFASRQVIFARNSPSPDVGLSPVNDQATDQYFSLIYGTGEHAGLYAIKSKATGKVLFSRRPAEPYVGQIDGDGRYPDNWFKIEPGKTYLSKYFRLVQPSTGTALVSRTHLQPYFWNHPQTEVFDDQYFTFLFEDHHHHHH
# Legend:
# Assay in all cases: glycan array binding signal (z-score within array); higher = stronger binding
# Conditions in all cases: glycan notation: IUPAC condensed, linker removed
# [1] = target: Gal(b1-4)GlcNAc(b1-2)[Gal(b1-4)GlcNAc(b1-6)]Man(a1-6)[Gal(b1-4)GlcNAc(b1-2)Man(a1-3)]Man(b1-4)GlcNAc(b1-4)[Fuc(a1-6)]GlcNAc
# Outline: (§1)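 Glycan array data came from 3228 arrays in the Consortium for Functional Glycomics database, and only arrays with an available protein sequence were kept. Glycan names were put into IUPAC-condensed notation, and columns mapping to the same glycan were averaged. The binding signal is a within-array Z-score, averaged across arrays of one protein sequence run at different concentrations or buffers and across linkers. A negative Z-score can be read as non-binding.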
# [2] = target: Gal(b1-4)GlcNAc(b1-2)[Gal(b1-4)GlcNAc(b1-6)]Man(a1-6)[GlcNAc(b1-4)][Gal(b1-4)GlcNAc(b1-2)Man(a1-3)]Man(b1-4)GlcNAc(b1-4)GlcNAc
# Outline: as §1
# [3] = target: Gal(b1-4)GlcNAc(b1-2)[Gal(b1-4)GlcNAc(b1-6)]Man(a1-6)[GlcNAc(b1-4)][Gal(b1-4)GlcNAc(b1-2)[Gal(b1-4)GlcNAc(b1-4)]Man(a1-3)]Man(b1-4)GlcNAc(b1-4)[Fuc(a1-6)]GlcNAc
# Outline: as §1
# [4] = target: Gal(b1-4)GlcNAc(b1-3)Gal(b1-3)GalNAc
# Outline: as §1
# [5] = target: Gal(b1-4)GlcNAc(b1-3)Gal(b1-3)GlcNAc
# Outline: as §1
# [6] = target: Gal(b1-4)GlcNAc(b1-3)Gal(b1-4)Glc
# Outline: as §1
# [7] = target: Gal(b1-4)GlcNAc(b1-3)Gal(b1-4)GlcNAc
# Outline: as §1
# [8] = target: Gal(b1-4)GlcNAc(b1-3)Gal(b1-4)GlcNAc(b1-2)Man(a1-3)[Gal(b1-4)GlcNAc(b1-3)Gal(b1-4)GlcNAc(b1-2)Man(a1-6)]Man(b1-4)GlcNAc(b1-4)GlcNAc
# Outline: as §1
# [9] = target: Gal(b1-4)GlcNAc(b1-3)Gal(b1-4)GlcNAc(b1-2)Man(a1-3)[Gal(b1-4)GlcNAc(b1-3)Gal(b1-4)GlcNAc(b1-2)Man(a1-6)]Man(b1-4)GlcNAc(b1-4)[Fuc(a1-6)]GlcNAc
# Outline: as §1
# [10] = target: Gal(b1-4)GlcNAc(b1-3)Gal(b1-4)GlcNAc(b1-2)[Gal(b1-4)GlcNAc(b1-3)Gal(b1-4)GlcNAc(b1-6)]Man(a1-6)[Gal(b1-4)GlcNAc(b1-3)Gal(b1-4)GlcNAc(b1-2)Man(a1-3)]Man(b1-4)GlcNAc(b1-4)GlcNAc
# Outline: as §1
# [11] = target: Gal(b1-4)GlcNAc(b1-3)Gal(b1-4)GlcNAc(b1-2)[Gal(b1-4)GlcNAc(b1-3)Gal(b1-4)GlcNAc(b1-6)]Man(a1-6)[Gal(b1-4)GlcNAc(b1-3)Gal(b1-4)GlcNAc(b1-2)Man(a1-3)]Man(b1-4)GlcNAc(b1-4)[Fuc(a1-6)]GlcNAc
# Outline: as §1
# [12] = target: Gal(b1-4)GlcNAc(b1-3)Gal(b1-4)GlcNAc(b1-3)Gal(b1-4)GlcNAc
# Outline: as §1
# [13] = target: Gal(b1-4)GlcNAc(b1-3)Gal(b1-4)GlcNAc(b1-3)Gal(b1-4)GlcNAc(b1-2)Man(a1-3)[Gal(b1-4)GlcNAc(b1-3)Gal(b1-4)GlcNAc(b1-3)Gal(b1-4)GlcNAc(b1-2)Man(a1-6)]Man(b1-4)GlcNAc(b1-4)GlcNAc
# Outline: as §1
# [14] = target: Gal(b1-4)GlcNAc(b1-3)Gal(b1-4)GlcNAc(b1-3)Gal(b1-4)GlcNAc(b1-2)Man(a1-3)[Gal(b1-4)GlcNAc(b1-3)Gal(b1-4)GlcNAc(b1-3)Gal(b1-4)GlcNAc(b1-2)Man(a1-6)]Man(b1-4)GlcNAc(b1-4)[Fuc(a1-6)]GlcNAc
# Outline: as §1
# [15] = target: Gal(b1-4)GlcNAc(b1-3)Gal(b1-4)GlcNAc(b1-3)Gal(b1-4)GlcNAc(b1-2)[Gal(b1-4)GlcNAc(b1-3)Gal(b1-4)GlcNAc(b1-3)Gal(b1-4)GlcNAc(b1-6)]Man(a1-6)[Gal(b1-4)GlcNAc(b1-3)Gal(b1-4)GlcNAc(b1-3)Gal(b1-4)GlcNAc(b1-2)Man(a1-3)]Man(b1-4)GlcNAc(b1-4)[Fuc(a1-6)]GlcNAc
# Outline: as §1
# [16] = target: Gal(b1-4)GlcNAc(b1-3)Gal(b1-4)GlcNAc(b1-3)Gal(b1-4)GlcNAc(b1-3)Gal(b1-4)GlcNAc(b1-2)Man(a1-3)[Gal(b1-4)GlcNAc(b1-3)Gal(b1-4)GlcNAc(b1-3)Gal(b1-4)GlcNAc(b1-3)Gal(b1-4)GlcNAc(b1-2)Man(a1-6)]Man(b1-4)GlcNAc(b1-4)GlcNAc
# Outline: as §1
# [17] = target: Gal(b1-4)GlcNAc(b1-3)Gal(b1-4)GlcNAc(b1-3)Gal(b1-4)GlcNAc(b1-3)Gal(b1-4)GlcNAc(b1-2)Man(a1-3)[Gal(b1-4)GlcNAc(b1-3)Gal(b1-4)GlcNAc(b1-3)Gal(b1-4)GlcNAc(b1-3)Gal(b1-4)GlcNAc(b1-2)Man(a1-6)]Man(b1-4)GlcNAc(b1-4)[Fuc(a1-6)]GlcNAc
# Outline: as §1
# [18] = target: Gal(b1-4)GlcNAc(b1-3)Gal(b1-4)GlcNAc(b1-3)Gal(b1-4)GlcNAc(b1-3)Gal(b1-4)GlcNAc(b1-2)[Gal(b1-4)GlcNAc(b1-3)Gal(b1-4)GlcNAc(b1-3)Gal(b1-4)GlcNAc(b1-3)Gal(b1-4)GlcNAc(b1-6)]Man(a1-6)[Gal(b1-4)GlcNAc(b1-3)Gal(b1-4)GlcNAc(b1-3)Gal(b1-4)GlcNAc(b1-3)Gal(b1-4)GlcNAc(b1-2)Man(a1-3)]Man(b1-4)GlcNAc(b1-4)[Fuc(a1-6)]GlcNAc
# Outline: as §1
# [19] = target: Gal(b1-4)GlcNAc(b1-3)Gal(b1-4)GlcNAc(b1-3)Gal(b1-4)GlcNAc(b1-3)Gal(b1-4)GlcNAc(b1-3)Gal(b1-4)GlcNAc(b1-2)Man(a1-3)[Gal(b1-4)GlcNAc(b1-3)Gal(b1-4)GlcNAc(b1-3)Gal(b1-4)GlcNAc(b1-3)Gal(b1-4)GlcNAc(b1-3)Gal(b1-4)GlcNAc(b1-2)Man(a1-6)]Man(b1-4)GlcNAc(b1-4)GlcNAc
# Outline: as §1
# [20] = target: Gal(b1-4)GlcNAc(b1-3)Gal(b1-4)GlcNAc(b1-3)Gal(b1-4)GlcNAc(b1-3)Gal(b1-4)GlcNAc(b1-3)Gal(b1-4)GlcNAc(b1-2)Man(a1-3)[Gal(b1-4)GlcNAc(b1-3)Gal(b1-4)GlcNAc(b1-3)Gal(b1-4)GlcNAc(b1-3)Gal(b1-4)GlcNAc(b1-3)Gal(b1-4)GlcNAc(b1-2)Man(a1-6)]Man(b1-4)GlcNAc(b1-4)[Fuc(a1-6)]GlcNAc
# Outline: as §1
# [21] = target: Gal(b1-4)GlcNAc(b1-3)Gal(b1-4)GlcNAc(b1-3)Gal(b1-4)GlcNAc(b1-3)Gal(b1-4)GlcNAc(b1-3)Gal(b1-4)GlcNAc(b1-2)[Gal(b1-4)GlcNAc(b1-3)Gal(b1-4)GlcNAc(b1-3)Gal(b1-4)GlcNAc(b1-3)Gal(b1-4)GlcNAc(b1-3)Gal(b1-4)GlcNAc(b1-6)]Man(a1-6)[Gal(b1-4)GlcNAc(b1-3)Gal(b1-4)GlcNAc(b1-3)Gal(b1-4)GlcNAc(b1-3)Gal(b1-4)GlcNAc(b1-3)Gal(b1-4)GlcNAc(b1-2)Man(a1-3)]Man(b1-4)GlcNAc(b1-4)[Fuc(a1-6)]GlcNAc
# Outline: as §1
# [22] = target: Gal(b1-4)GlcNAc(b1-3)Gal(b1-4)GlcNAc(b1-3)Gal(b1-4)GlcNAc(b1-3)Gal(b1-4)GlcNAc(b1-3)Gal(b1-4)GlcNAc(b1-3)Gal(b1-4)GlcNAc(b1-2)Man(a1-3)[Gal(b1-4)GlcNAc(b1-3)Gal(b1-4)GlcNAc(b1-3)Gal(b1-4)GlcNAc(b1-3)Gal(b1-4)GlcNAc(b1-3)Gal(b1-4)GlcNAc(b1-3)Gal(b1-4)GlcNAc(b1-2)Man(a1-6)]Man(b1-4)GlcNAc(b1-4)GlcNAc
# Outline: as §1
# [23] = target: Gal(b1-4)GlcNAc(b1-3)Gal(b1-4)GlcNAc(b1-3)GalNAc
# Outline: as §1
binder,measurement,setting,value
B1,glycan array binding signal (z-score),[1],-0.205
same,glycan array binding signal (z-score),[2],-0.204
same,glycan array binding signal (z-score),[3],-0.205
same,glycan array binding signal (z-score),[4],-0.205
same,glycan array binding signal (z-score),[5],-0.206
same,glycan array binding signal (z-score),[6],-0.195
same,glycan array binding signal (z-score),[7],0.334
same,glycan array binding signal (z-score),[8],0.879
same,glycan array binding signal (z-score),[9],1.87
same,glycan array binding signal (z-score),[10],0.827
same,glycan array binding signal (z-score),[11],2.39
same,glycan array binding signal (z-score),[12],1.3
same,glycan array binding signal (z-score),[13],3.33
same,glycan array binding signal (z-score),[14],5.23
same,glycan array binding signal (z-score),[15],5.29
same,glycan array binding signal (z-score),[16],5.88
same,glycan array binding signal (z-score),[17],6.24
same,glycan array binding signal (z-score),[18],6.23
same,glycan array binding signal (z-score),[19],5.44
same,glycan array binding signal (z-score),[20],6.16
same,glycan array binding signal (z-score),[21],6.2
same,glycan array binding signal (z-score),[22],5.13
same,glycan array binding signal (z-score),[23],0.016
